Measured values as given in a collection of fitness landscapes (doi:10.1016/j.celrep.2020.107928).
The full ranking holds about 81,000 sequences; the median of “one-hybrid fitness for binding parS DNA” is about -0.17, and the highest 2% start at about 0.51. The list shows a part of the results.

B1: Caulobacter ParB omega fusion; a variant is named by its letters at X, in order, B8GW30 (parent)
chain: MESVVVGEPGMSEGRRGLGRGLSALLGEVDAAPAQAPGEQLGGSREAPIEILQRNPDQPRRTFREEDLEDLSNSIREKGVLQPILVRPSPDTAGEYQIVAGERAWRAAQRAGLKTVPIMVRELDDLAVLEIGIIENVQRADLNVLEEALSYKVLMEKFERTQENIAQTIGKSXSHVANXMRLLXLPDEVQSYLVSGELTAXHARAIAAAADPVALAKQIIEGGLSVRETEALARKAPNLSAGKSKGGRPPRVKDTDTQALESDLSSVLGLDVSIDHRGSTGTLTITYATLEQLDDLCNRLTRGI

Variants of: B1
Test: one-hybrid fitness for binding parS DNA (scaled: cognate 1, non-cognate 0); higher = stronger binding
Settings: with parS DNA site
Method in brief: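 Pre- and post-selection plasmids were Illumina-sequenced, three replicate libraries were pooled, and any variant with under 10 reads was removed. The libraries were Caulobacter ParB with four specificity codons randomised, selected in E. coli USO through a HIS3 reporter whose site is 19 bp from the promoter. Cells grew 48 hours at 37°C on M9 without histidine, with 0.1 mM IPTG and 5 mM 3-AT. Fitness is the log change in variant-to-wild-type read ratio, rescaled against cognate and non-cognate.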

| Variant | one-hybrid fitness for binding parS DNA |
| --- | --- |
| ECAS | ≤ 0.2 |
| EQLN | ≤ 0.2 |
| GKLV | ≤ 0.2 |
| RRCR | ≤ 0.2 |
| MPLA | ≤ 0.2 |
| PPQW | ≤ 0.2 |
| KYQR | ≤ 0.2 |
| LEIT | ≤ 0.2 |
| DGET | ≤ 0.2 |
| LPKE | ≤ 0.2 |
| KGGS | ≤ 0.2 |
| LTLL | ≤ 0.2 |
| QRLA | ≤ 0.2 |
| YTRD | ≤ 0.2 |
| HAMK | ≤ 0.2 |
| CTII | ≤ 0.2 |
| SHYS | ≤ 0.2 |
| YNLG | ≤ 0.2 |
| CAGT | ≤ 0.2 |
| CTGE | ≤ 0.2 |
| SRFC | ≤ 0.2 |
| VHPT | ≤ 0.2 |
| LTLV | ≤ 0.2 |
| SLMY | ≤ 0.2 |
| YLKT | ≤ 0.2 |
| ILCA | ≤ 0.2 |

| Variant | one-hybrid fitness for binding parS DNA |
| --- | --- |
| FFTC | ≤ 0.2 |
| CKGC | ≤ 0.2 |
| NLDS | ≤ 0.2 |
| QPPN | ≤ 0.2 |
| SRHP | ≤ 0.2 |
| GRTK | ≤ 0.2 |
| RAET | 0.68 |
| QHGL | ≤ 0.2 |
| PYYR | ≤ 0.2 |
| RYKF | 0.257 |
| WYNY | ≤ 0.2 |
| MHHR | ≤ 0.2 |
| DMRN | ≤ 0.2 |
| IIKR | ≤ 0.2 |
| MVVT | ≤ 0.2 |
| LDWG | ≤ 0.2 |
| MHNM | ≤ 0.2 |
| IMQG | ≤ 0.2 |
| ATSD | ≤ 0.2 |
| VQPN | ≤ 0.2 |
| HSLR | ≤ 0.2 |
| RDLC | ≤ 0.2 |
| PPSI | ≤ 0.2 |
| EYIM | 0.237 |
| KAAV | ≤ 0.2 |
| TPYA | ≤ 0.2 |

| Variant | one-hybrid fitness for binding parS DNA |
| --- | --- |
| HAFI | ≤ 0.2 |
| GKPN | ≤ 0.2 |
| RNHY | 0.361 |
| YQRS | ≤ 0.2 |
| TFSV | ≤ 0.2 |
| DNAY | ≤ 0.2 |
| TYQE | ≤ 0.2 |
| AQIT | ≤ 0.2 |
| PHAY | ≤ 0.2 |
| VAVS | ≤ 0.2 |
| HHPK | ≤ 0.2 |
| YPGL | ≤ 0.2 |
| WFSS | ≤ 0.2 |
| HRNV | ≤ 0.2 |
| PMEG | ≤ 0.2 |
| TLAG | ≤ 0.2 |
| GSRS | ≤ 0.2 |
| PHFC | ≤ 0.2 |
| KVER | ≤ 0.2 |
| YSWG | ≤ 0.2 |
| PTYV | ≤ 0.2 |
| VAPC | ≤ 0.2 |
| DSTY | ≤ 0.2 |
| QRVT | ≤ 0.2 |
| TLQK | ≤ 0.2 |
| HADK | ≤ 0.2 |

| Variant | one-hybrid fitness for binding parS DNA |
| --- | --- |
| MDYT | ≤ 0.2 |
| FLMS | ≤ 0.2 |
| TPSM | ≤ 0.2 |
| WVNR | ≤ 0.2 |
| GNAS | ≤ 0.2 |
| SLLV | ≤ 0.2 |
| QELA | ≤ 0.2 |
| PQRH | ≤ 0.2 |
| HYKG | ≤ 0.2 |
| SLME | ≤ 0.2 |
| AILP | ≤ 0.2 |
| SWRY | ≤ 0.2 |
| GSNL | ≤ 0.2 |
| FCGG | ≤ 0.2 |
| YWNW | ≤ 0.2 |
| DWNR | ≤ 0.2 |
| CRRS | ≤ 0.2 |
| ERAS | ≤ 0.2 |
| TSHG | ≤ 0.2 |
| MHDY | ≤ 0.2 |
| ESGT | ≤ 0.2 |
| QYYS | ≤ 0.2 |
| NMWY | ≤ 0.2 |
| AVSL | ≤ 0.2 |
| IRMR | ≤ 0.2 |
| HMHR | ≤ 0.2 |

| Variant | one-hybrid fitness for binding parS DNA |
| --- | --- |
| ATYL | ≤ 0.2 |
| HTGM | ≤ 0.2 |
| FQRT | ≤ 0.2 |
| PDWR | ≤ 0.2 |
| VKLS | ≤ 0.2 |
| PRHT | ≤ 0.2 |
| YHNW | ≤ 0.2 |
| GCKS | ≤ 0.2 |
| DYRS | ≤ 0.2 |
| FVKS | ≤ 0.2 |
| QCNY | ≤ 0.2 |
| NMLD | ≤ 0.2 |
| YKCG | ≤ 0.2 |
| EDKT | ≤ 0.2 |
| HSNG | ≤ 0.2 |
| KRYC | ≤ 0.2 |
| QSYQ | ≤ 0.2 |
| CTHP | ≤ 0.2 |
| TRMS | ≤ 0.2 |
| SMGA | ≤ 0.2 |
| LTAH | ≤ 0.2 |
| QTWC | ≤ 0.2 |
| DPFE | ≤ 0.2 |
| SYQT | ≤ 0.2 |
| QAKW | ≤ 0.2 |
| TSWG | ≤ 0.2 |

| Variant | one-hybrid fitness for binding parS DNA |
| --- | --- |
| RCNC | 0.941 |
| QFQI | ≤ 0.2 |
| TNET | ≤ 0.2 |
| TYPF | ≤ 0.2 |
| AEQK | ≤ 0.2 |
| FVKY | ≤ 0.2 |
| VETV | ≤ 0.2 |
| NQSR | ≤ 0.2 |
| PGHK | ≤ 0.2 |
| IYAR | ≤ 0.2 |
| MHTT | ≤ 0.2 |
| ILQS | ≤ 0.2 |
| EVVF | ≤ 0.2 |
| PYMN | ≤ 0.2 |
| CALT | ≤ 0.2 |
| QEIP | 0.259 |
| RKML | ≤ 0.2 |
| SAEQ | ≤ 0.2 |
| ARSA | ≤ 0.2 |
| GLFE | ≤ 0.2 |
| CLLK | ≤ 0.2 |
| VAKE | ≤ 0.2 |
| ECGM | ≤ 0.2 |
